Assay results: article PMC6919601, “Identification of Plasmodium dipeptidyl aminopeptidase allosteric inhibitors by high throughput screening” (PLoS ONE, 2019)
Among all 110,000 compounds or so, about 230 (0.21%) showed an effect of 50% or more. The list shows a part of the results.

These molecules were tested against DPAP1 (Plasmodium falciparum, UniProt Q8IIJ9) (assay: primary screen, percent inhibition; read by cleavage of a fluorogenic dipeptide substrate; higher = more effect of the substance).
Design: species or system P. falciparum D10 trophozoite lysates; single well
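Further: 30 min substrate incubation versus DMSO and 10 µM JCP410 controls.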

DPAP1, sequence (Q8IIJ9 whole entry, looked up): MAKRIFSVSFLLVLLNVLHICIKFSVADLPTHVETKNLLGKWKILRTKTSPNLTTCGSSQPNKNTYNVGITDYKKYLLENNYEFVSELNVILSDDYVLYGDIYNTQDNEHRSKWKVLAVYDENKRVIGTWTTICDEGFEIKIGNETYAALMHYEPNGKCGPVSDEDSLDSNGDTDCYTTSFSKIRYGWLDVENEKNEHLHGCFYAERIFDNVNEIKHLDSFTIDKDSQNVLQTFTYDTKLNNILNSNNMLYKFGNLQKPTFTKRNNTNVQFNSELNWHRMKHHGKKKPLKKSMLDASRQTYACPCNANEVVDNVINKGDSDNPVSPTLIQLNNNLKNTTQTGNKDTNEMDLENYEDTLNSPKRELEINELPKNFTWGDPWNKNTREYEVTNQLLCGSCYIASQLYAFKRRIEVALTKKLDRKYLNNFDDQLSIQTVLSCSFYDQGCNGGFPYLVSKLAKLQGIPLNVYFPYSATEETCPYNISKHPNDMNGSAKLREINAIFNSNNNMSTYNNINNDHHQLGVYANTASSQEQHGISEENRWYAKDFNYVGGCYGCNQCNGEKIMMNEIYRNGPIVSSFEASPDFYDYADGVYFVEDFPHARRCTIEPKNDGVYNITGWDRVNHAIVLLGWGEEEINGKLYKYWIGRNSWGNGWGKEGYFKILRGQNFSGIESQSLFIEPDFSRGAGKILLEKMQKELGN

First: CCOC(=O)c1c(C)oc2ncnc(NCc3ccc(Cl)cc3)c12
Second: Cc1cc(C)nc(/N=C(\NCc2ccc(Cl)cc2)NC(=O)c2cccc(Cl)c2)n1
The “% Inhibition @ 10 uM” value of the first is higher: 2.09% for the first, 0.146% for the second.

First: CC(C)(C)c1ccc(OCc2nn3c(Cn4cnc5ccccc54)nnc3s2)cc1
Second: Cc1cc(NCc2ccc(F)cc2)nc2cc(O)ccc12
The “% Inhibition @ 10 uM” value of the first is higher: 11.7% for the first, -3.11% for the second.

Compared with `CCCNC(=O)Cn1cc(S(=O)(=O)NC)c(S(=O)(=O)NC)c1`, `CCCn1c2ccccc2c2cnn(CC(=O)NCCN(C)C)c(=O)c21` is lower in “% Inhibition @ 10 uM” value: 3.25% for the first, 0.958% for the second.

First: CCOc1cc(C=C2C(=O)NC(=O)NC2=O)cc(Br)c1OCCOc1ccccc1C
Second: COc1ccc(C(=O)O/N=C(\N)c2ccccc2Cl)cc1OC
The “% Inhibition @ 10 uM” value of the first is lower: -3.78% for the first, 0.343% for the second.

Going from `O=C(NCCCn1ccnc1)c1cc2nc(-c3ccco3)cc(C(F)(F)Cl)n2n1` to `Cc1cc(OCC(=O)Nc2ccc(Br)cn2)ccc1Cl`, the “% Inhibition @ 10 uM” value rises from 2.19% to 6.15%.

Compared with `Cc1nc2sc3c(NCc4ccccc4)ncnc3c2c2c1COC(C)(C)C2`, `Clc1ccc(-c2csc(N3CCN(C/C=C/c4ccccc4)CC3)n2)cc1` is lower in “% Inhibition @ 10 uM” value: 2.1% for the first, -0.403% for the second.

Going from `COc1ccc(O)c(C2=NN3C(C2)c2cc(Br)ccc2OC3c2ccncc2)c1` (stereo not drawn) to `Cc1cc(Oc2ccc(C#N)cc2)nc(-c2ccc(Br)cc2)n1`, the “% Inhibition @ 10 uM” value falls from 6.5% to -9.91%.

First: N#C/C(=C\c1ccc(Br)cc1)c1nc(-c2ccc([N+](=O)[O-])cc2)cs1
Second: CCC(C)c1ccc(NC(=O)c2ccc(Br)cc2)cc1 (stereo not drawn)
The “% Inhibition @ 10 uM” value of the first is lower: -3.03% for the first, 0.247% for the second.

First: Cc1ccc(CNC(=O)C2CCN(S(=O)(=O)c3ccc4[nH]c5c(c4c3)CCCCC5)CC2)cc1
Second: N#Cc1c(NC(=O)C2CCCO2)sc2c1CCCCCC2 (stereo not drawn)
The “% Inhibition @ 10 uM” value of the first is higher: 0.802% for the first, -1.06% for the second.

Going from `COc1ccc(C(C)C)cc1S(=O)(=O)Nc1cccc(C(=O)O)c1` to `CC(C)C(C(=O)O)N1C(=O)c2cccc3cccc(c23)C1=O` (stereo not drawn), the “% Inhibition @ 10 uM” value rises from -1.27% to 3.82%.

Going from `COc1cc2c(cc1C=O)OC(C)C2` (stereo not drawn) to `COc1ccc(C(=O)Nc2sc(C)c(C)c2C(N)=O)cc1Br`, the “% Inhibition @ 10 uM” value falls from 1.4% to 1.07%.

Compared with `O=C(NC(N1CCCC1=O)(C(F)(F)F)C(F)(F)F)c1ccccc1`, `CCCC1(O)CC(c2ccccc2)NC(c2ccccc2)C1CC` (stereo not drawn) is higher in “% Inhibition @ 10 uM” value: -13.4% for the first, -0.233% for the second.

Going from `Cc1nccc2nc(O)c(C(=O)NC3CCCCC3C)cc12` (stereo not drawn) to `CCCCCCOc1ccc(C2C3CN(C)CC=C3C(C#N)=C(N)C2(C#N)C#N)cc1OC` (stereo not drawn), the “% Inhibition @ 10 uM” value falls from 2.35% to -2.85%.

For `O=C(NC1CCS(=O)(=O)C1)OCCOC(=O)NC1CCS(=O)(=O)C1` (stereo not drawn), the “% Inhibition @ 10 uM” value was -2.65%.
